The list shows a part of the results. Interaction screen of human proteins with wild-type SARS-CoV-2 proteins by split-DHFR complementation in yeast, 1 µg/mL methotrexate. Value = fitness of the pair (three or more lineages) minus that of the viral protein without a human partner, on a scale set by negative (0) and fused positive (1) controls, mean of up to three cultures; higher = more likely to interact. Active = false discovery rate below 0.05 (one-sided t-test) in at least one culture. Nearly all pairs are not hits, and differences among them are mostly noise (correlation between cultures about 0.3); most hits were seen in one culture only. Human sequences are the Swiss-Prot entries looked up by gene name; the clone may be another isoform. NSP2 values were corrected by the authors for a growth advantage. Listed are human proteins with a hit and a random twelfth of the others.
Assays:
Experiment in all cases: yeast fitness gain over the viral ORF with no human partner (scaled fitness); higher = more likely to interact
SARS-CoV-2 E = biological target: SARS-CoV-2 E
Description: (§1)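 Split mouse DHFR complementation in pooled diploid yeast: human ORFeome clones carry one fragment and viral ORFs the other; barcoded lineages compete in 1 µg/mL methotrexate and fitness is read by barcode sequencing in up to three cultures.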

SARS-CoV-2 M = biological target: SARS-CoV-2 M
Description: as §1

SARS-CoV-2 N = biological target: SARS-CoV-2 N
Description: as §1

SARS-CoV-2 NSP1 = biological target: SARS-CoV-2 NSP1
Description: as §1

SARS-CoV-2 NSP10 = biological target: SARS-CoV-2 NSP10
Description: as §1

SARS-CoV-2 NSP12 = biological target: SARS-CoV-2 NSP12
Description: as §1

SARS-CoV-2 NSP13 = biological target: SARS-CoV-2 NSP13
Description: as §1

SARS-CoV-2 NSP14 = biological target: SARS-CoV-2 NSP14
Description: as §1

SARS-CoV-2 NSP15 = biological target: SARS-CoV-2 NSP15
Description: as §1

SARS-CoV-2 NSP16 = biological target: SARS-CoV-2 NSP16
Description: as §1

SARS-CoV-2 NSP2 = biological target: SARS-CoV-2 NSP2
Description: as §1

SARS-CoV-2 NSP4 = biological target: SARS-CoV-2 NSP4
Description: as §1

SARS-CoV-2 NSP5 = biological target: SARS-CoV-2 NSP5
Description: as §1

SARS-CoV-2 NSP6 = biological target: SARS-CoV-2 NSP6
Description: as §1

SARS-CoV-2 NSP7 = biological target: SARS-CoV-2 NSP7
Description: as §1

SARS-CoV-2 NSP8 = biological target: SARS-CoV-2 NSP8
Description: as §1

SARS-CoV-2 NSP9 = biological target: SARS-CoV-2 NSP9
Description: as §1

SARS-CoV-2 ORF10 = biological target: SARS-CoV-2 ORF10
Description: as §1

SARS-CoV-2 ORF3A = biological target: SARS-CoV-2 ORF3A
Description: as §1

SARS-CoV-2 ORF3B = biological target: SARS-CoV-2 ORF3B
Description: as §1

SARS-CoV-2 ORF6 = biological target: SARS-CoV-2 ORF6
Description: as §1

SARS-CoV-2 ORF7A = biological target: SARS-CoV-2 ORF7A
Description: as §1

SARS-CoV-2 ORF7B = biological target: SARS-CoV-2 ORF7B
Description: as §1

SARS-CoV-2 ORF8 = biological target: SARS-CoV-2 ORF8
Description: as §1

SARS-CoV-2 ORF9B = biological target: SARS-CoV-2 ORF9B
Description: as §1

[1] = biological target: SARS-CoV-2 ORF9Bwu (the 73-codon ORF)
Description: as §1

SARS-CoV-2 S = biological target: SARS-CoV-2 S
Description: as §1

Measured: yeast fitness gain

B1: GPR83, Q9NYM4 (protein)
chain: MVPHLLLLCLLPLVRATEPHEGRADEQSAEAALAVPNASHFFSWNNYTFSDWQNFVGRRRYGAESQNPTVKALLIVAYSFIIVFSLFGNVLVCHVIFKNQRMHSATSLFIVNLAVADIMITLLNTPFTLVRFVNSTWIFGKGMCHVSRFAQYCSLHVSALTLTAIAVDRHQVIMHPLKPRISITKGVIYIAVIWTMATFFSLPHAICQKLFTFKYSEDIVRSLCLPDFPEPADLFWKYLDLATFILLYILPLLIISVAYARVAKKLWLCNMIGDVTTEQYFALRRKKKKTIKMLMLVVVLFALCWFPLNCYVLLLSSKVIRTNNALYFAFHWFAMSSTCYNPFIYCWLNENFRIELKALLSMCQRPPKPQEDRPPSPVPSFRVAWTEKNDGQRAPLANNLLPTSQLQSGKTDLSSVEPIVTMS
inactive: SARS-CoV-2 E -0.0269 | SARS-CoV-2 M -0.108 | SARS-CoV-2 N 0.00371 | SARS-CoV-2 NSP1 = 0.00572 | SARS-CoV-2 NSP10 = 0.0428 | SARS-CoV-2 NSP12 = 0.0362 | SARS-CoV-2 NSP13 = 0.0203 | SARS-CoV-2 NSP14 = 0.0273 | SARS-CoV-2 NSP15 = 0.0118 | SARS-CoV-2 NSP16 = 0.0542 | SARS-CoV-2 NSP2 = -0.0912 | SARS-CoV-2 NSP4 = 0.017 | SARS-CoV-2 NSP5 = 0.00269 | SARS-CoV-2 NSP6 = 0.0435 | SARS-CoV-2 NSP7 = 0.0625 | SARS-CoV-2 NSP8 = 0.0204 | SARS-CoV-2 NSP9 = 0.03 | SARS-CoV-2 ORF10 = -0.0299 | SARS-CoV-2 ORF3A -0.02 | SARS-CoV-2 ORF3B 0.00969 | SARS-CoV-2 ORF6 = 0.0263 | SARS-CoV-2 ORF7A -0.00306 | SARS-CoV-2 ORF7B 0.0169 | SARS-CoV-2 ORF8 = -0.0248 | SARS-CoV-2 ORF9B -0.00571 | [1] 0.0516 | SARS-CoV-2 S 0.0253

B2: TEX28, O15482 (protein)
chain: MVLKAEHTRSPSATLPSNVPSCRSLSSSEDGPSGPSSLADGGLAHNLQDSVRHRILYLSEQLRVEKASRDGNTVSYLKLVSKADRHQVPHIQQAFEKVNQRASATIAQIEHRLHQCHQQLQELEEGCRPEGLLLMAESDPANCEPPSEKALLSEPPEPGGEDGPVNLPHASRPFILESRFQSLQQGTCLETEDVAQQQNLLLQKVKAELEEAKRFHISLQESYHSLKERSLTDLQLLLESLQEEKCRQALMEEQVNGRLQGQLNEIYNLKHNLACSEERMAYLSYERAKEIWEITETFKSRISKLEMLQQVTQLEAAEHLQSRPPQMLFKFLSPRLSLATVLLVFVSTLCACPSSLISSRLCTCTMLMLIGLGVLAWQRWRAIPATDWQEWVPSRCRLYSKDSGPPADGP
inactive: SARS-CoV-2 E -0.0664 | SARS-CoV-2 M 0.063 | SARS-CoV-2 N -0.00709 | SARS-CoV-2 NSP1 = -0.0344 | SARS-CoV-2 NSP10 = 0.00372 | SARS-CoV-2 NSP12 = 0.0359 | SARS-CoV-2 NSP13 = 0.0117 | SARS-CoV-2 NSP14 = 0.0653 | SARS-CoV-2 NSP15 = -0.0139 | SARS-CoV-2 NSP16 = -0.14 | SARS-CoV-2 NSP2 = -0.0709 | SARS-CoV-2 NSP4 = 0.168 | SARS-CoV-2 NSP5 = 0.0698 | SARS-CoV-2 NSP6 = -2e-05 | SARS-CoV-2 NSP7 = -0.0655 | SARS-CoV-2 NSP8 = -0.0077 | SARS-CoV-2 NSP9 = 0.084 | SARS-CoV-2 ORF10 = -0.056 | SARS-CoV-2 ORF3A 0.111 | SARS-CoV-2 ORF3B 0.0369 | SARS-CoV-2 ORF6 = 0.029 | SARS-CoV-2 ORF7A 0.106 | SARS-CoV-2 ORF7B -0.0132 | SARS-CoV-2 ORF8 = -0.00436 | SARS-CoV-2 ORF9B -0.0357 | [1] 0.0506 | SARS-CoV-2 S 0.0263

B3: LYPLAL1, Q5VWZ2 (protein)
chain: MAAASGSVLQRCIVSPAGRHSASLIFLHGSGDSGQGLRMWIKQVLNQDLTFQHIKIIYPTAPPRSYTPMKGGISNVWFDRFKITNDCPEHLESIDVMCQVLTDLIDEEVKSGIKKNRILIGGFSMGGCMAIHLAYRNHQDVAGVFALSSFLNKASAVYQALQKSNGVLPELFQCHGTADELVLHSWAEETNSMLKSLGVTTKFHSFPNVYHELSKTELDILKLWILTKLPGEMEKQK
inactive: SARS-CoV-2 E 0.0377 | SARS-CoV-2 M 0.0609 | SARS-CoV-2 NSP10 = 0.0237 | SARS-CoV-2 NSP12 = -0.096 | SARS-CoV-2 NSP13 = -0.0855 | SARS-CoV-2 NSP16 = -0.133 | SARS-CoV-2 NSP2 = -0.275 | SARS-CoV-2 NSP5 = 0.0295 | SARS-CoV-2 NSP6 = -0.352 | SARS-CoV-2 NSP8 = -0.00463 | SARS-CoV-2 ORF10 = 0.0212 | SARS-CoV-2 ORF3B -0.0628 | SARS-CoV-2 ORF6 = 0.0488 | SARS-CoV-2 ORF7A -0.054 | SARS-CoV-2 ORF7B -0.0838 | SARS-CoV-2 ORF8 = -0.0317 | SARS-CoV-2 ORF9B 0.0545 | [1] -0.236 | SARS-CoV-2 S 0.108

B4: KCNS3, Q9BQ31 (protein)
chain: MVFGEFFHRPGQDEELVNLNVGGFKQSVDQSTLLRFPHTRLGKLLTCHSEEAILELCDDYSVADKEYYFDRNPSLFRYVLNFYYTGKLHVMEELCVFSFCQEIEYWGINELFIDSCCSNRYQERKEENHEKDWDQKSHDVSTDSSFEESSLFEKELEKFDTLRFGQLRKKIWIRMENPAYCLSAKLIAISSLSVVLASIVAMCVHSMSEFQNEDGEVDDPVLEGVEIACIAWFTGELAVRLAAAPCQKKFWKNPLNIIDFVSIIPFYATLAVDTKEEESEDIENMGKVVQILRLMRIFRILKLARHSVGLRSLGATLRHSYHEVGLLLLFLSVGISIFSVLIYSVEKDDHTSSLTSIPICWWWATISMTTVGYGDTHPVTLAGKLIASTCIICGILVVALPITIIFNKFSKYYQKQKDIDVDQCSEDAPEKCHELPYFNIRDIYAQRMHTFITSLSSVGIVVSDPDSTDASSIEDNEDICNTTSLENCTAK
inactive: SARS-CoV-2 E 0.0187 | SARS-CoV-2 N 0.0211 | SARS-CoV-2 NSP4 = 0.0176

— the supplement of paper PMC11741623
